Assay results taken from paper PMC12136788.
The other results are listed elsewhere or left out.

T1: UNK ZnF1-3 (human, UniProt Q9C0B0 31-174)
T1 sequence: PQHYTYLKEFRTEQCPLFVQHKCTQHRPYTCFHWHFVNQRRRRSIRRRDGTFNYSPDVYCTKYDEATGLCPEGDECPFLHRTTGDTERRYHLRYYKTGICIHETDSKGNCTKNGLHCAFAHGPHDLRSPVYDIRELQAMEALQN

B1: chr14:76904430:76904431:+_ENSMUSG00000022010_ENSMUST00000022587|mus_mus|motif|central (ssRNA)
RNA: GGGAGUUCUACAGUCCGACGAUCCCGUGGAAAAAAAAGAGAGAGGGCGGGAGGGAGCAAGCUCCAGCAGCCUGGUUCAAACGGGAUAAAACCGCCUAGCUGUCUGCAGCUCAGGGCGUGAGAACGGUGGUGCUGGCUCGAGUGCAACAGAGGAUUGAGCAUCA
B2: chr17:57759655:57759656:+_ENSG00000141367_ENST00000269122|hu_hu|FALSE|FALSE (ssRNA)
RNA: GGGAGUUCUACAGUCCGACGAUCUCGAGCCUUCUUACGGGCCAUCUGCAAGUACUUCACCAGUUCUUCCCAGUUUCCACUAGUAUUGGCAGCCUGAACAACUUCCAUGUAGGAGGAAGGAUCAUCUGCUUUGAUAUAAGAAUCCAACAGAGGAUUGAGCAUCA
B3: chrX:69798090:69798091:-_ENSMUSG00000031343_ENSMUST00000055966|mus_mus|mus_mus_mus_hu_False|48_48 (ssRNA)
RNA: GGGAGUUCUACAGUCCGACGAUCAAGUCCCCGGGUUCUUGUCGUCUUGAUUCCCCUUGACCAGUGGUUCCAGGGAGAAUAUUAAUCAGGAGAAGAAUCCCAAGGCUGGUCAUGUAACAGUGACUUGUUUGUGUGAUUAUCAUCCAACAGAGGAUUGAGCAUCA
B4: chrX:102931600:102931601:-_ENSG00000123562_ENST00000441076|hu_mus|FALSE|FALSE (ssRNA)
RNA: GGGAGUUCUACAGUCCGACGAUCGUCCUCCACCAGCCACGGUUUUAAUUCUUCAGGGAUCUUCACCUUCACCUCCAUCCUACUCUUGAAUGCCUCCUCGCUCUCCACAGUGGGGUCAGCCCGUGCCCUUUUCUUCCGAGGGGGCAACAGAGGAUUGAGCAUCA
B5: chr1:229631753:229631754:-_ENSG00000069248_ENST00000261396|hu_hu|motif|central (ssRNA)
RNA: GGGAGUUCUACAGUCCGACGAUCAUGCUUUUCUGAAGAAUCAUCUAAUUCCCAUUUACUGAUGUUUGAACUCGUCAGGCGGUAAAAGCUUGAUCUCUCUCUAUCCCAGAGAACACUUGAAAGUGUGAGAUCACUACUAGGAGACAACAGAGGAUUGAGCAUCA
B6: chr8:117878989:117878990:-_ENSG00000164754_ENST00000297338|hu_hu|hu_hu_hu_mus_True|48_48 (ssRNA)
RNA: GGGAGUUCUACAGUCCGACGAUCCCAGAGGCCCUCGUUUACUGAGGACAAAAUGUGCGUAGAACAUUUUUCUUAUUUGCUAUGAAAACAGAAGAAACCUGGAUCUCGGCGGGGAGCCGGGAGGGGUGGGUGGCCCGGGGAGGGCAACAGAGGAUUGAGCAUCA
B7: chr7:56126341:56126342:+_ENSG00000146731_ENST00000540286|hu_mus|hu_hu_hu_mus_True|18_78 (ssRNA)
RNA: GGGAGUUCUACAGUCCGACGAUCCAUGUUUCUCCUCUUGGCUCUGCGCAGAGCUACUAUGCCUUCUUUCGCAAGGGCAUCUAAGGAAAAGGGGUCAAUCCCCUUUUGAUUAAUAACAACAAAUCCUUUAUCUGAGUCACCACACAACAGAGGAUUGAGCAUCA
B8: chr10:28872372:28872373:+_ENSG00000095787_ENST00000354911|hu_hu|motif|central (ssRNA)
RNA: GGGAGUUCUACAGUCCGACGAUCUGCAUCUGAAGUUUUGCUUGGGUUAUUGCUUGGAUUAGAAGAAUGUGAAUUUGAACGGUGAAGAGCACUGUGGUUGUGUGAAUUUUCUUGUGGAGAGUAACUGGUCCCACCAUCCCUCUCCAACAGAGGAUUGAGCAUCA
B9: chr1:37488339:37488340:+_ENSMUSG00000026111_ENSMUST00000027285|mus_mus|motif|central (ssRNA)
RNA: GGGAGUUCUACAGUCCGACGAUCGGCAGGGUCAUCUCUGGCCCACUGGUCCUUUGUUUGCUUCCGGUAGUGAAAGUUUCGGUAAACCCUCUGAGGAGAGGUAAACAGGUAGAGCAUCUGCCAUGCAGCAAACUCAAAGUCCAUCAACAGAGGAUUGAGCAUCA
B10: chr3:31621302:31621303:+_ENSG00000163527_ENST00000295770|hu_mus|FALSE|FALSE (ssRNA)
RNA: GGGAGUUCUACAGUCCGACGAUCUAAAAUCCAAUGAAUAAGGCCAGCUGUUAUCAUCAACCCUGGGUAAACGGUGCCACCCACUAUUCUUCCCAGUGGGUACCAUGCUCUUUCAUCAAACCAAUUUAGAAACUCAUAGAAUCCCAACAGAGGAUUGAGCAUCA
B11: chr16:17261293:17261294:+_ENSMUSG00000050240_ENSMUST00000090190|mus_hu|FALSE|FALSE (ssRNA)
RNA: GGGAGUUCUACAGUCCGACGAUCCUGAAGUUCUGCAAAGGAAUCACCUACUUUCACGAGUCACCUCACAGAUGCGGCUGCCCACAGCCCGGGAGGCCAUGCACACGGCCAGGCGCGUGAACAUUUCCCGUGCGGUACAGACUUCAACAGAGGAUUGAGCAUCA
B12: chr1:82457952:82457953:+_ENSG00000117114_ENST00000335786|hu_mus|FALSE|FALSE (ssRNA)
RNA: GGGAGUUCUACAGUCCGACGAUCAGCUUUGCUGAAACAAUUUACAUGUCAUUAGAACUUUACCAUAAAAUAAAUUAAUUACUAAAUAUAGCCAGAAGGAAUAUGGAAGAGUAAUAUUUCUGUUUUAUUUUAUUUUUAUUUUAUCAACAGAGGAUUGAGCAUCA
B13: chr19:36967278:36967279:+_ENSMUSG00000024811_ENSMUST00000025729|mus_hu|FALSE|FALSE (ssRNA)
RNA: GGGAGUUCUACAGUCCGACGAUCGAAUGUGAUACAGUACAAGUAAGACACUGAAGAUGGGUAUAAUAGUACUACUUGCACAAAAAGUUAAAUUUCACUUCAAAAAAAAAAAUCACAAGACAAAAGAAAAAGCAAUUCCAUCAUCAACAGAGGAUUGAGCAUCA
B14: chr17:64801638:64801639:+_ENSG00000154229_ENST00000413366|hu_mus|hu_hu_hu_mus_False|8_58 (ssRNA)
RNA: GGGAGUUCUACAGUCCGACGAUCUAUAUAUAUAUAUACAUAUGUACACAUAUAUAGUAAAACCCUAGUUAAACGUGUAAACUAGCCAUUCAUUUUUAAAAUUACAUCUACAUUAAAAAAUUAAUAUAUCUGAUACAGUGCCAGCAACAGAGGAUUGAGCAUCA

target: T1, UNK ZnF1-3; assay: nsRBNS (natural sequence RNA bind-n-seq); RBNS binding buffer (assumed for nsRBNS): 25 mM Tris pH 7.5, 150 mM KCl, 3 mM MgCl2, 0.01% Triton X-100, 500 ug/ml BSA, 20 U/ml SUPERase-In, 4 C; UNK is unkempt and MSI1 is Musashi-1; names of the RNAs are library labels; protein concentration not given here; high values mean tight binding

Row | Binder | binding signal [enrichment R]
1 | B1 | 1.75
2 | B2 | 0.83
3 | B3 | 0.537
4 | B4 | 1.09
5 | B5 | 0.755
6 | B6 | 1.92
7 | B7 | 0.737
8 | B8 | 1.38
9 | B9 | 1.24
10 | B10 | 0.763
11 | B11 | 0.74
12 | B12 | 2.43
13 | B13 | 1.54
14 | B14 | 1.24
